Experimental data as given in US20250296984A1, “THERAPEUTIC AND DIAGNOSTIC AGENTS AND USES THEREOF” (priority 2022, published 2025).
Numbering of substitutions follows the chain as printed.

B1: 13-1C10-1G9: mouse hybridoma subclone antibody against US28 ECD3 Peptide-1 and -2; sequenced (antibody)
heavy: EVKLVESGGGLVKPGGSLKLSCAASGFTFSSYAMSWVRQTPEKRLEWVASISSGGSTYYPDSVKGRFTISRDNARNILYLQMSSLRSEDTAMYYCARGGSTMITTGLGFAYWGQGTLVTVSAAKTTPPSVYPLAPGSAAQTNSMVTLGCLVKGYFPEPVTVTWNSGSLSSGVHTFPAVLQSDLYTLSSSVTVPSSTWPSETVTCNVAHPASSTKVDKKIVPRDCGCKPCICTVPEVSSVFIFPPKPKDVLTITLTPKVTCVVVDISKDDPEVQFSWFVDDVEVHTAQTQPREEQFNSTFRSVSELPIMHQDWLNGKEFKCRVNSAAFPAPIEKTISKTKGRPKAPQVYTIPPPKEQMAKDKVSLTCMITDFFPEDITVEWQWNGQPAENYKNTQPIMDTDGSYFIYSKLNVQKSNWEAGNTFTCSVLHEGLHNHHTEKSLSHSPGK
light: QIVLTQSPAIMSASPGEKVTMTCSASSSVSYMHWYQQKSGTSPKRWIYDTSKLASGVPARFSGSGSGTSYSLTISSMEAEDAATYYCQQWSSNPPLTFGAGTKLELKRADAAPTVSIFPPSSEQLTSGGASVVCFLNNFYPKDINVKWKIDGSERQNGVLNSWTDQDSKDSTYSMSSTLTLTKDEYERHNSYTCEATHKTSTSPIVKSFNRNEC
B2: 14-4E4-1E8: mouse hybridoma subclone antibody against US28 ECD3 Peptide-1 and -2; sequenced (antibody)
heavy: EVKLVESGGDLVKPGGSLKLSCAASGFTFSSYAMSWVRQTPEKRLEWVASISSGGRTYYPDSVKGRFTISRDNARNILYLQMSSLRSEDTAIYYCARGGTRHSYGNGFDYWGQGTTLTVSSAKTTPPSVYPLAPGSAAQTNSMVTLGCLVKGYFPEPVTVTWNSGSLSSGVHTFPAVLQSDLYTLSSSVTVPSSTWPSETVTCNVAHPASSTKVDKKIVPRDCGCKPCICTVPEVSSVFIFPPKPKDVLTITLTPKVTCVVVDISKDDPEVQFSWFVDDVEVHTAQTQPREEQFNSTFRSVSELPIMHQDWLNGKEFKCRVNSAAFPAPIEKTISKTKGRPKAPQVYTIPPPKEQMAKDKVSLTCMITDFFPEDITVEWQWNGQPAENYKNTQPIMDTDGSYFIYSKLNVQKSNWEAGNTFTCSVLHEGLHNHHTEKSLSHSPGK
light: B1 light with T5S, A9T, T50S, S91T, L96I
B3: 2F5B11: mouse IgG1 kappa antibody against US28 ECD1 Peptide-N; VH SEQ ID NO: 233, VL SEQ ID NO: 235 (antibody, V domains shown)
VH: EVQLQESGAELAKPGASVKMSCKASGYTFSSYWIHWIKQRPGQGLEWIGYINPNTAYTEFNQKFMDKATLTADKSSSTAYMQLTSLTSEDSAVYYCARLRSDRTGFAYWGQGTLVTVSA
VL: QIVLTQSPSSLAVSVGEKVTMS[about 80 residues not printed]FGAGTKLEIK
modifications: Mature form of VH sequence of 2F5B11, without the leader sequence; Mature form of VL sequence of 4H3C3, without the leader sequence
B4: 4H3C3: mouse IgG1 kappa antibody against US28 ECD1 Peptide-N; VH SEQ ID NO: 187, VL SEQ ID NO: 189 (antibody, V domains shown)
VH: QVQLQQSGAELAKPGASVKMSCKASGYTFTSYWMHWVKQRPGQGLEWIGYINPSTGYAEYNQKFKDKATLTADKSSSTAYMQLSSLTSEDSAVYYCARLRFGSSGFAYWGQGTLVTVSS
VL: QIVLTQSPSSLAVSVGEKVTMS[about 80 residues not printed]FGAGTKLEIK
modifications: Mature form of VH sequence of 4H3C3, without the leader sequence; Mature form of VL sequence of 4H3C3, without the leader sequence

Legend:
[1] = test system: control CHO cells (US28 negative); assay: FACS binding to US28 negative control CHO cells; set-up: species or system Chinese hamster; conditions: secondary antibody background removed
[2] = target: BSA (Bos taurus); assay: ELISA, BSA coating (control); assay type: binding; conditions: ECD1 subclones

Molecule | Percentage of binding to CHO cells ([1]; Table 7A, (1:5) (200 μg/ml)) [%] | Percentage of binding to CHO cells ([1]; Table 7B, (1:5)) [%] | absorbance, Coating: BSA [2]
B1 | 0.44 | – | –
B2 | 0.03 | – | –
B3 | – | 0.39 | 0.0508
B4 | – | 0.31 | 0.0164
